Experimental data taken from PubChem BioAssay AID485281 (National Center for Advancing Translational Sciences (NCATS), 2010).
The campaign covered roughly 350,000 compounds. About 260 (0.074%) were called active. The shares of active, inactive and inconclusive entries below differ from those in the screen. Calls follow the shape of the dose curve; as a rule, active = well fitted inhibition curve with a large enough effect; inconclusive = small, poorly fitted or top-dose-only effect; inactive = no such curve, though single readings can be large or run the other way. Potencies beside an inconclusive call are fits to weak or partial responses and may not hold up.

Each compound was assayed against Ferritin light chain (Equus caballus) (UniProt P02791) (assay: qHTS Assay for Identification of Novel General Anesthetics). Conditions: apoferritin/1-aminoanthracene competitive binding, fluorescence; activity change, negative = displacement: at 77.5 µM (top of the series).
UniProt P02791, sequence (P02791 whole entry, looked up): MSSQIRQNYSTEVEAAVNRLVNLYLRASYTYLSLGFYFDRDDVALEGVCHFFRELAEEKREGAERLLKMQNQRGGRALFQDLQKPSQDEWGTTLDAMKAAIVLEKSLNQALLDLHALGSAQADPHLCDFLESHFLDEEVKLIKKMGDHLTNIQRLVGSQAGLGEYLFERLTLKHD
In short: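 Concentration-response curves derived by four-parameter Hill fitting of normalized fluorescence, where compounds displaced 1-AMA from 10 uM horse apoferritin following a brief 10 min room-temperature incubation; propofol titration acted as positive control.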
% is scaled to controls: 0 for no effect and ±100 for the full control effect; potency is read from the fitted curve at half-maximal effect; tags tell the direction and shape of the fitted curve.
Also: nearly all actives have a fitted effect of over 20% in size.

SMILES	Potency	activity change, negative = displacement
Cc1ccc(-c2cc(O)cc3sc(=O)oc23)cc1C	inconclusive: 31.6 µM [inhibitor, partial curve]	
COc1cccc(N2CCN(C(=O)c3cnn(-c4ccccc4Cl)c3C3CCN(C(=O)OC(C)(C)C)CC3)CC2)c1	inconclusive: 5.62 µM [inhibitor, full curve]	
CC1CCCCC12NC(=O)N(CC(=O)c1ccc[nH]1)C2=O (stereo unspecified)	inconclusive: 35.5 µM [inhibitor, partial curve]	
CC(=O)Nc1ccc(S(=O)(=O)Nc2nnc(CC(C)(C)C)s2)cc1	inconclusive: 35.5 µM [inhibitor, single point]	
Cc1nn2c(COc3ccc(NC(=O)C(C)C)cc3)nnc2c2ccccc12	inconclusive: 28.2 µM [inhibitor, partial curve]	
CCOc1cc(/C=C/c2ccc3cccc([N+](=O)[O-])c3n2)ccc1OCC(=O)N(C)C	inconclusive: 44.7 µM [inhibitor, partial curve]	
O=c1oc2ccccc2c(Nc2cccc3ccccc23)c1[N+](=O)[O-]	inconclusive: 14.1 µM [inhibitor, partial curve]	
CCc1nnc(NC(=O)CSc2ccc(-c3cccs3)nn2)s1	inconclusive: 44.7 µM [inhibitor, single point]	
O=C(Oc1ccc(/C=N/O)cc1)c1ccccc1Cl	inconclusive: 25.1 µM [inhibitor, partial curve]	
COc1cccc(-c2cn3c(n2)sc2cc(C(=O)NC4CCCCC4)ccc23)c1		inactive: -0.803%
CC(Oc1ccc(Cl)cc1Cl)c1nc(-c2ccccn2)no1 (stereo unspecified)	inconclusive: 28.2 µM [inhibitor, partial curve]	
CC(Cc1ccccc1)NC(=O)c1cc([N+](=O)[O-])ccc1Cl (stereo unspecified)		inactive: 0.68%
COc1ccc(Cc2nnc(SCc3ccc([N+](=O)[O-])cc3)o2)cc1	inconclusive: 35.5 µM [inhibitor, partial curve]	
Cc1cccc(NCc2cccc3ccccc23)n1	inconclusive: 39.8 µM [inhibitor, partial curve]	
Cn1c(=O)c2c(n3cnnc13)-c1ccccc1CC21CCCC1		inactive: 1.95%
Cc1ccc(-c2nn3c(C)nnc3s2)cc1NC(=O)C(C)C		inactive: -8.37%
COc1ccccc1NC(=O)CN1C(=O)C(c2ccc(F)cc2)=NC12CCCCC2	inconclusive: 10 µM [inhibitor, partial curve]	
NC(=O)CC(NC(=O)c1ccccc1)c1ccc(N2CCN(c3ccc(F)cc3)CC2)c([N+](=O)[O-])c1 (stereo unspecified)	inconclusive: 12.6 µM [inhibitor, partial curve]	
CSc1ccc(S(=O)(=O)Nc2ccc(S(=O)(=O)Nc3ccc(C)cc3)cc2)cc1	inconclusive: 17.8 µM [inhibitor, partial curve]	
CCOC(=O)C1=C(c2ccccc2)NC(=O)NC1c1ccc(N(C)C)cc1 (stereo unspecified)	inconclusive: 39.8 µM [inhibitor, single point]	
Cc1ccc(Nc2nc(N)nc(CSc3nc4ccccc4s3)n2)cc1	inactive	
Cc1cc(C(=O)OCC(=O)c2cccc([N+](=O)[O-])c2)c2cccc(C)c2n1	inconclusive: 1.41 µM [inhibitor, full curve, poor fit]	

SMILES	Potency	activity change, negative = displacement
O=C(NCc1ccco1)c1csc2c1CCCC2	inconclusive: 28.2 µM [inhibitor, partial curve]	
Cc1ccc(CNC(=O)CO/N=C/c2ccc(C(C)(C)C)cc2)cc1	inconclusive: 22.4 µM [inhibitor, single point]	
Cc1ccc(N2C(=O)C3C(C2=O)C2C=CC3C23CC3)cc1 (stereo unspecified)	inconclusive: 39.8 µM [inhibitor, single point]	
CC(=O)N(C(C)=O)N1C(=O)C2C3c4ccccc4C(c4ccccc43)C2C1=O (stereo unspecified)		inactive: -10.8%
S=C(NCC1CCCO1)Nc1cc(Cl)c(Cl)cc1Cl (stereo unspecified)	inconclusive: 25.1 µM [inhibitor, partial curve]	
Cc1nnc(SCC(=O)N2N=C(c3ccc(Cl)cc3)CC2c2ccco2)[nH]c1=O (stereo unspecified)	inconclusive: 25.1 µM [inhibitor, partial curve]	
Cc1ccc(-c2cc(-c3ccccc3)c(C#N)c(N)n2)o1		inactive: 86.1%
O=[N+]([O-])c1c(Nc2ccccn2)cc(Cl)c2nonc12		inactive: -9.51%
CCCCN(CCCC)S(=O)(=O)c1ccc(NC(=O)CN2CCOCC2)cc1	inconclusive: 2.51 µM [inhibitor, full curve, poor fit]	
COc1ccc(CCNc2ncnc3c2cnn3-c2ccc(C)c(Cl)c2)cc1		inactive: -0.717%
Cn1c(=O)c2ccccc2n(Cc2ccccc2Cl)c1=O	inconclusive: 7.94 µM [inhibitor, full curve, poor fit]	
O=C(OCc1ccccc1)N1CCc2ccccc21	inconclusive: 28.2 µM [inhibitor, partial curve]	
CCn1cc(C(=O)OCC(=O)c2ccccc2)c(=O)c2ccc(C)nc21	inconclusive: 28.2 µM [inhibitor, partial curve]	
COc1ccc(CC(CC(=O)O)C(=O)Nc2ccc(Cl)c(Cl)c2)cc1 (stereo unspecified)	inconclusive: 28.2 µM [inhibitor, partial curve]	
CCOC(=O)c1[nH]c2ccc(Br)cc2c1NC(=O)CCN1CCC(C)CC1	inconclusive: 10 µM [inhibitor, partial curve]	
CCOC(=O)c1ccc2c(c1)nc(COc1ccc3ccccc3c1)n2CC	inconclusive: 1.41 µM [inhibitor, full curve, poor fit]	
COc1ccc(CNc2ccc(C)c(C)c2)cc1	inconclusive: 12.6 µM [inhibitor, partial curve]	
Cc1ccc(C)c(N2CCN(C(=O)c3ccc(Cn4c(=O)[nH]c5ccccc5c4=O)cc3)CC2)c1		inactive: -15.8%
Cc1ccc(C(C)n2cc(C(=O)NCc3cccnc3)nn2)cc1 (stereo unspecified)	inconclusive: 22.4 µM [inhibitor, partial curve]	
CCN(c1ccccc1)S(=O)(=O)c1nnc(NC(=O)C2CCCCC2)s1	inconclusive: 7.94 µM [inhibitor, partial curve]	
Cc1ccc2c(C)c(C(=O)N(Cc3ccc(N(C)C)cc3)Cc3ccco3)oc2c1C		inactive: -4.49%
C=CCn1c(SCC(=O)Nc2nc3ccccc3s2)nnc1-c1ccccc1O	inconclusive: 31.6 µM [inhibitor, partial curve]	

SMILES	Potency	activity change, negative = displacement
N#Cc1ccsc1NC(=O)COC(=O)CCCSc1nc2ccccc2s1	inconclusive: 28.2 µM [inhibitor, partial curve]	
CC(C)C(=O)Nc1ccc([N+](=O)[O-])cc1Br		inactive: -3.45%
Cc1ccc(-c2ccc(/C=C3\SC(N4CCOCC4)=NC3=O)o2)cc1		inactive: -20.3%
O=C(CNC(=O)c1ccc(Cl)cc1)OCC(=O)c1ccccc1	inconclusive: 56.2 µM [inhibitor, single point]	
Cc1cc(C(=O)CSc2nn3c(=O)c(C(C)(C)C)nnc3s2)c(C)n1C1CC1	inconclusive: 31.6 µM [inhibitor, partial curve]	
C#CCNC(=O)C1=C[C@@H](c2ccc(C(F)(F)F)cc2)C[C@@H](OCCCCO)O1	inconclusive: 35.5 µM [inhibitor, single point]	
CCOc1ccccc1N1CCN(C2=C(NS(=O)(=O)c3cccs3)C(=O)c3ccccc3C2=O)CC1	inconclusive: 12.6 µM [inhibitor, partial curve]	
O=c1[nH]c(SCC2CCCCO2)nc2ccccc12 (stereo unspecified)	inconclusive: 6.31 µM [inhibitor, full curve]	
Cc1sc2nc(CN3CCOCC3)nc(Oc3ccc(NC(=O)c4ccco4)cc3)c2c1C	inconclusive: 35.5 µM [inhibitor, single point]	
NS(=O)(=O)c1cc(C(=O)OCC(=O)Nc2ccc(Cl)cc2[N+](=O)[O-])ccc1Cl	inconclusive: 25.1 µM [inhibitor, partial curve]	
CCCC1O[C@@H]2CC3C4CCC5=CC(=O)C=C[C@]5(C)C4C(OC(C)=O)C[C@]3(C)[C@]2(C(=O)COC(C)=O)O1 (stereo partly specified)		inactive: -19.5%
Cc1ccc(S(=O)(=O)N2CN(Cc3ccco3)c3nc4ccccc4nc32)cc1C	inconclusive: 5.01 µM [inhibitor, full curve, poor fit]	
Cc1ccc(C(=O)c2c3ccc([N+](=O)[O-])cc3[n+]([O-])n2CCC(N)=O)cc1	inconclusive: 31.6 µM [inhibitor, partial curve]	
CC(C)(C)OC(=O)[C@H](Cc1ccccc1)NC(=O)c1nc[nH]c1C(=O)N1CCN(C(=O)OC(C)(C)C)CC1	inconclusive: 39.8 µM [inhibitor, single point]	
O=C(OCc1nc2ccccc2[nH]1)C12CC3CC(CC(C3)C1)C2	inconclusive: 22.4 µM [inhibitor, partial curve]	
CN(C)C=NC(=O)c1cc(C(=O)c2ccccc2Cl)c[nH]1		inactive: -9.39%
O=C(O)C1CC=CCC1C(=O)Nc1ccccc1Cl (stereo unspecified)	inconclusive: 44.7 µM [inhibitor, single point]	
Cc1nc(C)c(-c2ccc(SCC(=O)Nc3cccc(Cl)c3C)nn2)s1	inconclusive: 22.4 µM [inhibitor, partial curve]	
Cc1cc2nc(N3C(=O)CNC3=S)sc2cc1C		inactive: -9.23%
Cc1ccc(C)c(SCC(=O)OC/C(O)=C(\C#N)c2nc3ccccc3[nH]2)c1	inconclusive: 20 µM [inhibitor, partial curve]	
O=C(CCC(=O)N1CCCC1)Nc1nnc(C2CCCCC2)s1	inconclusive: 28.2 µM [inhibitor, partial curve]	
CCN(CC)C(=S)NC(=O)C12CC3CC(CC(C3)C1)C2	inconclusive: 28.2 µM [inhibitor, partial curve]	
